# ± gives the standard deviation of the averaged measurements. Some of the results follow.
# Test system: PfAP2-LT AP2 domain (GST-tagged)
# Experiment: gcPBM binding intensity (ln(normalized median fluorescence intensity)); higher = stronger DNA binding
# Procedure, shortened: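 Binding of GST-tagged P. falciparum DNA-binding domains, expressed in E. coli and used at about 25 μg on average, was carried out for 1 h in 1× PBS containing 1% milk, 0.2 mg/ml BSA, 0.5% salmon testes DNA and 0.03% Triton X-100. The target was an Agilent 4 × 180k array of primer-extended double-stranded 36-bp intergenic genomic probes plus negative controls, read with Alexa488 anti-GST antibody at 488 nm. Binding intensity is the highest Masliner-normalised natural-log median intensity across replicate spots of either probe orientation.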
row,Sequence,gcPBM binding intensity (ln)
1,AAATAAATACACATATGTACATATTTTATTTTATTT [XGTACX_site2357],8.76 ± 0.45
2,TAAAAAAAATACAAAAGTACACAAAATTATACGTTA [XGTACX_site4656],8.77 ± 0.49
3,TTGTTAAAAGTATCCATTCTTTATTACTTTTGTTTA [XGTACX_negctrl_site532],8.59 ± 0.57
4,TCGTAAACATATTGAAAAATATAAAAAGGGGTAATA [CACACA_negctrl_site619],8.71 ± 0.56
5,ATTGGGTACAAATACACACACATATATATATTAATA [CACACA_site2376],9.47 ± 0.41
6,TGTACCTTATTAATATATTTAACTCGCCTTATATAC [XGTACX_negctrl_site289],8.96 ± 0.36
7,CAAATATAAATATATACATGCATCTATCTATATAAA [TGCATGCA_site369],8.64 ± 0.49
8,AATCAAAAATCAAACGCATGTAGTATAATAGATAAG [TGCATGCA_site753],9.05 ± 0.36
9,AAATTGTAGCACCAAGCATGCTAAAAGGACATATGA [TGCATGCA_site717],8.96 ± 0.35
10,AAATTATATCATTTATTTTTTTATATTTTTTATATT [CACACA_negctrl_site685],8.53 ± 0.64
11,AATTTCCTTTTTTAAAGTACACAAAAGTTCACTTTG [XGTACX_site4460],8.53 ± 0.54
12,TATAATTTATTAAGGGGTACATATATTTCATGATAA [XGTACX_site5141],8.7 ± 0.29
13,AAGATTAAAAATTGCACACAAAAATATATTTTCTAT [CACACA_site1305],8.83 ± 0.48
14,TAGTATAAAATTATGTGTACACAAATATAACTTTTC [XGTACX_site5971],8.87 ± 0.43
15,TATTTATTGTGATACTTTTATTGTTTAATGATTAAA [CACACA_negctrl_site495],8.46 ± 0.53
16,AAAAAAAAAAAAAGGTGTACAAGTATAATTACATAA [XGTACX_site534],8.75 ± 0.54
17,AAATTATATCAATGTTGTACATATTATTTTTTTCTC [XGTACX_site5948],8.78 ± 0.52
18,AAAAAAAAAAATATCACACACACATAAATATAAACC [CACACA_site2278],9.82 ± 0.24
19,TAATGAATTTAAATTTTAAAATTAATAAAAAAAATA [TGCATGCA_negctrl_site15],8.16 ± 0.5
20,CAAAATGTTTCTCATTGTACACAAAATAAATGTCCT [XGTACX_site6798],8.61 ± 0.44
21,ATACATATGTATATTTGTACATATTAGACAATCTTA [XGTACX_site6706],8.72 ± 0.35
22,ACATTTACAAGGAAAGTGCATATAAGAAAAATAAAA [GTGCAC_site9587],8.76 ± 0.47

row,Sequence,gcPBM binding intensity (ln)
1,ATTAGTAAATTTATATGTACACATTGTTATTTTATA [XGTACX_site1177],8.86 ± 0.44
2,ATTCTATTATAATACACACCCAAATATTAAAAAGAT [CACACA_site2960],8.99 ± 0.4
3,CCACATGATATGATTACACACATATATATATTTACA [CACACA_site164],9.11 ± 0.37
4,TATTATATATATATATGTACATATATATGCTAAAAA [XGTACX_site5297],8.81 ± 0.26
5,GATGTTGCAAAATTCTGTACATATAAATGTATACAT [XGTACX_site5009],8.87 ± 0.38
6,TATTTATTAAAACACACACACACACCCACAAAATAA [CACACA_site241],10.04 ± 0.099
7,ATAATATATATATAAACACACAAAAAAAATTATATA [CACACA_site1534],8.96 ± 0.42
8,ATTTTTTTTTATGATACACACTTGGATAATTAAAAC [CACACA_site4473],8.71 ± 0.42
9,TTATTCATTTTTATTTGTACATAATTATATGAAATT [XGTACX_site6389],8.52 ± 0.34
10,TTTTATATTTTATGCACACTTATAAGAAATATGTAC [CACACA_site3040],8.82 ± 0.46
11,GGAAAAAAAAATAAATGTACGAATTAACATATCAAA [XGTACX_site5653],8.71 ± 0.47
12,ACACAAGCACACAAATGTACATATATATATATATAT [XGTACX_site5146],9.88 ± 0.49
13,TTATTTTCCCTTTGTGCATGCAGTTTACTTTTTGTG [TGCATGCA_site993],9.38 ± 0.38
14,ACACATATATTAAATGTGCACTGAAATATGCATATA [GTGCAC_site9936],9.05 ± 0.33
15,ACTTGTAAGAGACACACACACACACGGATATAAATA [CACACA_site6517],10 ± 0.36
16,CAAAATAAAAATAACACACACATTTATTTATATACA [CACACA_site6679],9.21 ± 0.39
17,ATATATGTATATTTATGTACGTATTCCTGTATAGTC [XGTACX_site5763],9.08 ± 0.35
18,TATAAAAGATTGGAATGTACATAAGAAAAAAATATA [XGTACX_site5028],8.71 ± 0.51
19,TGTGTAGGGGATATTCTACTTTAAAAATAAATATAT [CACACA_negctrl_site207],8.53 ± 0.35
20,TTCAAGATTTATTATACACACATATTAATATTTATA [CACACA_site6413],8.81 ± 0.33
21,GGCCCAACTTCTTCTGACGAAAACGTAAATTGTGTG [XGTACX_negctrl_site533],8.88 ± 0.35
22,AATCATATTAGTATGGTGCAACATATATAAATATAT,8.87 ± 0.52

# Source: the supplement of paper PMC11417369
